Source: article PMC4336329 (PLoS ONE, 2015)
Out of some 310,000 compounds screened, about 14,000 (4.5%) showed an effect of 50% or more. Effects have a minus sign here. The list shows a part of the results.

target: human ether-à-go-go-related gene (hERG) potassium channel (human, UniProt Q12809); assay: primary screen, population patch clamp on CHO cells stably expressing hERG
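Note: peak tail current of the secondary pulse compared with the same well before compound.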

Chain of human ether-à-go-go-related gene (hERG) potassium channel (Q12809 whole entry, looked up): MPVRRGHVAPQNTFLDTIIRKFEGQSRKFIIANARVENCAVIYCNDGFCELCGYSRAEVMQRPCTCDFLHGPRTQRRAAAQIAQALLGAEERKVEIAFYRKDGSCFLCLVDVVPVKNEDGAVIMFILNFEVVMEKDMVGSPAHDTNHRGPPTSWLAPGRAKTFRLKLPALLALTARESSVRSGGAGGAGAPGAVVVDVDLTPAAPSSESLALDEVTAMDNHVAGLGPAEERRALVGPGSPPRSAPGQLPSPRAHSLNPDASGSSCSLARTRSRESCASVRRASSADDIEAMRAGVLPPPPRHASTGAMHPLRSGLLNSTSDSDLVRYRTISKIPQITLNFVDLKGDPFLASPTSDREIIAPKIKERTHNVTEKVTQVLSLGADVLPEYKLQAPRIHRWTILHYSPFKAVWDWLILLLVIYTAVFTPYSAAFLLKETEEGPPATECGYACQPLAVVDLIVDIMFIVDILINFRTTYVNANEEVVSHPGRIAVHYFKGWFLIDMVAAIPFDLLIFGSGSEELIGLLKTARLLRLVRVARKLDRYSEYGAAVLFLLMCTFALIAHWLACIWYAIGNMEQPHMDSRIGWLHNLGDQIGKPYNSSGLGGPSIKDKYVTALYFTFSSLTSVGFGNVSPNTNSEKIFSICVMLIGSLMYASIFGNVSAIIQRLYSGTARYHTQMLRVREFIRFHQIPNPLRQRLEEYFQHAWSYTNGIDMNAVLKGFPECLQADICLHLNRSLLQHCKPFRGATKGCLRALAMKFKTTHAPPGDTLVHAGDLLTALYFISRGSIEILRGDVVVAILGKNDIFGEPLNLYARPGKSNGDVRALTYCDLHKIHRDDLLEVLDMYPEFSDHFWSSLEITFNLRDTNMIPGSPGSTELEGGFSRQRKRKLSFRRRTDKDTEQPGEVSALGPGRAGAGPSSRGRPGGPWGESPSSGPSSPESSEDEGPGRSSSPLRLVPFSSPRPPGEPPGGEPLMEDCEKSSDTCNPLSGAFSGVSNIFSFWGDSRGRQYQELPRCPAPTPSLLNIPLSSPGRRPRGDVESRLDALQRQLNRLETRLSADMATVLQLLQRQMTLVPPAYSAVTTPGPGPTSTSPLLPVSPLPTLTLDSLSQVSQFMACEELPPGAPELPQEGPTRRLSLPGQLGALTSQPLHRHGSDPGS

SMILES	hERG current change (%, negative = inhibition) at 10uM [%]
CCc1cccc(NC(=O)C2CCCN(S(=O)(=O)c3cccs3)C2)c1 (centres unmarked)	-7.62
Cc1ccc(N2CC(NC(=O)C(=O)c3c(C)[nH]c4ccccc34)CC2=O)cc1C (centres unmarked)	-10.1
N#Cc1nc(COc2cccc(Cl)c2)oc1N1CCCC1	-47.5
O=c1c2cc(NC(=S)N3CCCCCC3)ccc2nc2n1CCCCC2	-43.9
COc1cc(CN2CCCCCC2)cc(OC)c1	5.09
COC(=O)C1=C(C)N(Cc2ccccc2)C(=NCCCCO)N[C@H]1c1ccccc1	-53.2
CCCCCCNC(=O)N[C@H](Cc1ccc(O)cc1)C(=O)NCCC[C@H]1CN2C(=NC[C@H]2CCC)N1CC1CCC1	9.27
Cc1ccc(S(=O)(=O)NC(N)=NCCc2ccc(Cl)cc2)cc1	8.52
COC(=O)c1sc(NC(=O)CSc2n[nH]c(N)n2)c(C(=O)OC)c1C	15.1
Fc1ccc(Cl)cc1/C=N/n1cnnc1SCc1ccccc1	12.1
O=C(O)/C(=C\c1ccco1)NC(=O)c1ccco1	15.8
O=C1NCCN1CCNS(=O)(=O)c1ccc(F)cc1	5.47
S=C(Nc1ccc(Oc2ccccc2)cc1)NC1CCCC1	6.91
CC(=O)OCC1=C[C@@H]2OC(=O)C3=CO[C@@H](O[C@@H]4O[C@H](CO)[C@@H](O)[C@H](O)[C@H]4O)[C@H]1[C@@H]32	3.61
CCN(C(=O)C(=O)c1c[nH]c2ccccc12)c1ccccc1	11
CC(=O)Nc1ccc(S(=O)(=O)NCC(=O)OCC(=O)c2cc(C)n(-c3ccc4c(c3)OCO4)c2C)cc1	-0.381
CCCC(C(=O)NC(C)(C)C)N(C(=O)c1snc(C(N)=O)c1N)c1ccc2c(c1)OCCO2 (centres unmarked)	2.73
CSc1nc(N)n2nc(C(C)(C)C)cc2n1	-2.4
CC(C)(C)c1ccc(-c2noc(-c3ccno3)n2)cc1	17.9
Cc1nonc1NC(=O)CSc1nc2ccccc2[nH]1	9.42
COc1cccc(CN(C)C(=O)CNC(=O)c2ccc3c(c2)OCO3)c1OC	15.3
COc1ccc(-c2nnc(NC(=O)CSc3ccc(Cl)cc3)s2)cc1OC	-14.2

SMILES	hERG current change (%, negative = inhibition) at 10uM [%]
COc1ccc(CCNC(=O)Cn2c(=O)n(CC3CCCO3)c(=O)c3ccccc32)cc1OC (centres unmarked)	-0.738
S=C(Nc1ccccc1Cl)N1CCCCCC1	5.72
Cc1nc(-c2ccc(F)cc2)c(CC(=O)N2CCN(S(=O)(=O)c3cccc(Cl)c3)CC2)s1	-17.7
Cc1ccc(N(CC(=O)Nc2cccc(C)c2)S(=O)(=O)c2cccc3nonc23)cc1	0.456
O=C(c1ccc(F)cc1)N1CCC(n2nnc3ccccc32)CC1	-33.3
Cc1cc(NC(=O)c2ccc(Cl)cc2Cl)no1	6.38
Cc1ccc(NC(=O)Cn2ncc(Cl)c(Cl)c2=O)cc1S(=O)(=O)N1CCCCC1	-40
CC(=O)c1ccc(S(=O)(=O)NC2CC(=O)N(c3ccc(C)cc3)C2)cc1 (centres unmarked)	-12.4
Cc1cc(Cn2nc(-c3ccccc3)cc2C(=O)NCc2cccc(Br)c2)on1	-14.6
CCC1CCCCN1C(=O)CSc1nnc(CNC(=O)c2cc(OC)c(OC)c(OC)c2)o1 (centres unmarked)	6.43
O=c1c2cn[nH]c2nc(SCc2cc(=O)n3cc(Br)ccc3n2)n1-c1ccc(Br)cc1	-24.8
O=C(CCCn1c(=O)[nH]c2ccsc2c1=O)NC1CCCCC1	18.6
COc1ccc(C2(CNS(=O)(=O)c3ccc(C)cc3)CCOCC2)cc1	15.4
CSc1ccc(/C=c2\s/c(=C\C(=O)C(C)(C)C)n(CC(=O)NCCC3=CCCCC3)c2=O)cc1	-8.94
O=C(c1ccco1)N1CCN(Cc2cc(=O)oc3cc(O)ccc23)CC1	-69.3
Cc1nc2ccc(Br)cc2c2c1CC(CO)O2 (centres unmarked)	-20.1
COC(=O)c1ccc(CNC(=O)C2CCC(=O)N(Cc3cccc(F)c3)C2)cc1 (centres unmarked)	-12.7
COc1ccc(NC(=O)c2cc(C)on2)cc1OC	-0.652
COc1cc(C(=O)NC(=S)Nc2ccc([N+](=O)[O-])cc2)cc(OC)c1OC	1.26
Cc1cc(C)n(-c2nc3ccccc3s2)n1	-8.34
COC(=O)C1=CN(c2cccc(C(F)(F)F)c2)C=C(C(=O)OC)C1c1ccc(O)c(OC)c1	6.18
O=S(=O)(Cc1ccccc1)N1CCCCC1	14.1
